From the supplement of paper PMC7826260
The other results are listed elsewhere or left out. Each Rep nickase domain was tested in vitro on the same pool of single strands (3 µM enzyme, 1 h, 37 °C); shown is the middle of each 90-letter strand. A value is the log2 ratio of uncut reads to the pool without enzyme; the lower, the more was cut; hits are not called. Shares of all reads are compared; where an enzyme cuts many sequences, the uncut ones exceed 0.

Key:
Assay in all cases: uncleaved DNA left, log2 of reads against the no-enzyme library (log2 ratio); higher = less cleavage (more negative = more Rep cleavage of the k-mer); sequences stand for … in CTCGTCCG…ACCGGAGA
[1] = tested on: T1, Rep nickase domain of Muscovy duck circovirus
T1 sequence (protein, residues 1-111, tag omitted): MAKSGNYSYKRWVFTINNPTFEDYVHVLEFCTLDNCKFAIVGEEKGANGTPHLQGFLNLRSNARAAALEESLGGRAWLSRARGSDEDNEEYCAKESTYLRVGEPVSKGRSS
Description: (§1)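 A pool of 90-nt single-stranded DNAs with seven random bases just before the constant AC of the nick site (name = the seven bases) was cut by 3 µM recombinant His6-SUMO-tagged Rep nickase domain (300 nM DNA, 50 mM HEPES pH 8.0, 50 mM NaCl, 1 mM MnCl2, 1 h, 37 °C, three replicates). Uncut DNA was amplified and sequenced.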

[2] = tested on: T2, Rep nickase domain of banana bunchy top virus
T2 sequence (protein, residues 1-94, tag omitted): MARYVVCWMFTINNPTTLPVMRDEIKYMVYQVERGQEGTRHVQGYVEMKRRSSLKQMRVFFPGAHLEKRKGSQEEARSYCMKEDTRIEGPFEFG
Description: as §1

[3] = tested on: T3, Rep nickase domain of cabbage leaf curl virus
T3 sequence (protein, residues 1-116, tag omitted): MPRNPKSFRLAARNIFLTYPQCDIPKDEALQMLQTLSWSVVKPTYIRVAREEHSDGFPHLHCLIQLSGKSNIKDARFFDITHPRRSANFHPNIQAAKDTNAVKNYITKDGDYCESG
Description: as §1

[4] = tested on: T4, Rep nickase domain of chickpea chlorotic dwarf virus
T4 sequence (protein, residues 1-124, tag omitted): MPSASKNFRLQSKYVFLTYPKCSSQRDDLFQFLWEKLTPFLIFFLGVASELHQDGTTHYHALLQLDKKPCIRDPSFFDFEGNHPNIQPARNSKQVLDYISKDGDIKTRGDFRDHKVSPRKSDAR
Description: as §1

[5] = tested on: T5, Rep nickase domain of faba bean necrotic yellows virus
T5 sequence (protein, residues 1-98, tag omitted): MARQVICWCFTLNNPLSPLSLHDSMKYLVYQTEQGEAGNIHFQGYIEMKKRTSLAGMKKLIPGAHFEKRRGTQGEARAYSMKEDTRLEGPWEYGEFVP
Description: as §1

[6] = tested on: T6, Rep nickase domain of maize striate mosaic virus
T6 sequence (protein, residues 1-117, tag omitted): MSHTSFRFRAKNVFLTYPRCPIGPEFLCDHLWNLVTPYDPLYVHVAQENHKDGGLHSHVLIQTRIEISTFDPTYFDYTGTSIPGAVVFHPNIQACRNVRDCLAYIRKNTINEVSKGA
Description: as §1

[7] = tested on: T7, Rep nickase domain of porcine circovirus 2
T7 sequence (protein, residues 2-116, tag omitted): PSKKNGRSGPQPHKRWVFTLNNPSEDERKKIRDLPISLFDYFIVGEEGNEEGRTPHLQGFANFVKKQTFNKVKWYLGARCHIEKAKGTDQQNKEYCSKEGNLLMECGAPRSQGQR
Description: as §1

[8] = tested on: T8, Rep nickase domain of tomato golden mosaic virus
T8 sequence (protein, residues 1-124, tag omitted): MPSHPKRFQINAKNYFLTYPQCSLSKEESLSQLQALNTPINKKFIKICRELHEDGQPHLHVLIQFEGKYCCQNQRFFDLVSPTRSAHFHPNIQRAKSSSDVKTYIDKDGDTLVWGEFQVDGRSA
Description: as §1

[9] = tested on: T9, Rep nickase domain of tomato yellow leaf curl virus
T9 sequence (protein, residues 1-136, tag omitted): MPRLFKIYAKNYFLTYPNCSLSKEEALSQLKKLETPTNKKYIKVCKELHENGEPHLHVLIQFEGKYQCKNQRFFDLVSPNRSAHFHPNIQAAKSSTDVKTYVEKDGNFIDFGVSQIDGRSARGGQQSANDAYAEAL
Description: as §1

[10] = tested on: T10, Rep nickase domain of wheat dwarf virus
T10 sequence (protein, residues 1-137, tag omitted): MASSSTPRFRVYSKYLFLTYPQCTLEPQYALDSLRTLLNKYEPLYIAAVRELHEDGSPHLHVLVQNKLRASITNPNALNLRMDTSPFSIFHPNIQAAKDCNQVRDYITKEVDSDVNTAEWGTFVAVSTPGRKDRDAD
Description: as §1

Row | Sequence | uncleaved DNA left (log2) [1] | uncleaved DNA left (log2) [2] | uncleaved DNA left (log2) [3] | uncleaved DNA left (log2) [4] | uncleaved DNA left (log2) [5] | uncleaved DNA left (log2) [6] | uncleaved DNA left (log2) [7] | uncleaved DNA left (log2) [8] | uncleaved DNA left (log2) [9] | uncleaved DNA left (log2) [10]
1 | GACGGGT | 0.185 | -0.0101 | 0.392 | 0.738 | 0.101 | 1.27 | 0.125 | 0.189 | -0.0252 | 0.258
2 | GACACCT | -0.144 | -0.101 | -0.136 | -1.91 | -0.184 | 0.545 | -0.536 | -0.14 | -0.0547 | 0.0689
3 | AAGTTTC | -0.23 | -0.038 | -0.122 | -0.723 | -0.22 | -0.624 | -3.18 | -0.106 | -0.084 | -0.0995
4 | AAAAAGT | 0.0692 | -0.009 | -0.786 | -2.08 | 0.0316 | -1.17 | -0.514 | 0.0747 | 0.0535 | -0.216
5 | AGTTACG | 0.0456 | 0.0363 | -0.625 | -0.545 | 0.0108 | -1.04 | 0.2 | -0.115 | 0.084 | -0.0353
6 | CAGAGAA | -0.0475 | -0.095 | -0.0342 | 0.15 | -0.136 | -0.202 | -0.473 | -0.114 | -0.154 | -0.149
7 | AACACTA | -0.0389 | -0.0727 | -0.269 | -2.51 | 0.00499 | -0.708 | -0.0997 | -0.0207 | -0.0746 | 0.0413
8 | TTGGTCG | -0.0377 | -0.0735 | -0.779 | 0.0975 | 0.0247 | -0.857 | -0.018 | -0.0145 | 0.00928 | -0.195
9 | AGAGTCT | -0.0103 | -0.0786 | 0.194 | -0.281 | -0.00458 | 0.783 | -0.0879 | 0.00248 | -0.0589 | -0.0145
10 | ATCCACT | -0.0995 | -0.111 | -0.265 | -2.5 | -0.166 | -0.811 | -0.706 | -0.0847 | -0.0537 | -0.0784
11 | AGAAACG | 0.0125 | 0.111 | -0.654 | -0.593 | -0.00113 | -1.14 | 0.199 | -0.0242 | 0.0628 | -0.0599
12 | TCCTACT | -3.25 | -0.117 | -0.446 | -2.89 | 0.0635 | -0.593 | -3.46 | -0.104 | -0.0345 | -0.168
13 | GCCAGTG | -0.0962 | 0.0121 | -0.56 | -0.478 | 0.0724 | -0.949 | 0.0516 | 0.0648 | -0.0141 | -0.0942
14 | AGCGGCG | 0.0961 | 0.113 | -0.244 | -0.0919 | 0.0351 | -0.346 | 0.0826 | 0.077 | 0.0848 | -0.0152
15 | TTGTCAA | 0.0354 | 0.0582 | 0.431 | 0.902 | 0.118 | 1.14 | 0.12 | 0.0273 | 0.105 | 0.14
16 | GGCCTCT | -0.0735 | -0.064 | 0.267 | 0.386 | -0.0151 | 1.14 | -0.0944 | -0.131 | -0.081 | 0.007
17 | AGACGGA | 0.0236 | 0.0742 | 0.277 | 0.75 | 0.000274 | 0.884 | 0.15 | 0.188 | 0.0653 | 0.0548
18 | ATTCGTA | -0.306 | -0.142 | -0.361 | -1.01 | 0.00153 | -1.18 | -0.528 | -0.076 | 0.0114 | -0.128
19 | GGGATGT | -0.0382 | 0.0533 | 0.914 | 1.97 | -0.00619 | 2.25 | 0.19 | -0.0277 | -0.057 | 0.0409
20 | TAGAGTA | 0.00966 | -0.261 | -0.136 | -1.86 | -0.145 | -0.0985 | -2.57 | 0.111 | 0.0298 | 0.0507
21 | TCAAACA | 0.00377 | 0.0322 | 0.102 | -2.07 | 0.089 | -0.512 | -0.105 | -0.0436 | 0.0788 | 0.089
22 | CGGTAAA | 0.0326 | -0.0015 | 0.207 | 0.329 | -0.0857 | 0.282 | -0.0118 | 0.0799 | -0.0439 | -0.0202
23 | TGGAGGT | 0.0945 | -0.0101 | 0.386 | 1.15 | -0.012 | 1.51 | 0.116 | 0.0586 | -0.102 | 0.048
24 | GCTAAAA | 0.0421 | 0.17 | 0.179 | 0.609 | 0.0113 | 0.203 | 0.19 | 0.175 | 0.00857 | 0.117
25 | TGACATA | 0.0362 | 0.0907 | 0.687 | 1.54 | 0.029 | 1.96 | 0.107 | 0.0514 | 0.0801 | 0.279
26 | GCCCTGA | -0.0956 | -0.0641 | 0.0217 | 0.377 | -0.0313 | 0.404 | -0.0579 | -0.0463 | -0.144 | -0.0455
27 | GGAGGCA | -0.0341 | 0.0416 | 0.771 | 1.74 | -0.0795 | 2.06 | 0.141 | 0.0179 | -0.115 | -0.0219
28 | ATCGTCT | -0.0668 | -0.00953 | -0.155 | -1.84 | 0.0373 | -0.642 | -0.115 | -0.103 | -0.0764 | -0.102
29 | GATAGGT | 0.0602 | 0.0781 | 0.397 | 0.995 | -0.0325 | 1.4 | 0.0255 | 0.0391 | -0.00109 | -0.0099
